Test results as given in PubChem BioAssay AID686978 (National Center for Advancing Translational Sciences (NCATS), 2013).
In all, about 420,000 compounds went through this assay and about 64,000 (15%) were called active. This list was built around the results that the source calls inconclusive (neither active nor inactive); the mix of calls is not that of the screen. Calls come from the whole dose curve; as a rule, active = well fitted inhibition curve with a large enough effect; inconclusive = small, poorly fitted or top-dose-only effect; inactive = flat fitted curve, though single readings scatter. No potency is given beside an inconclusive call; the fits are too rough.
% is set by controls: 0 for no effect and ±100 for the full control effect; potency is the fitted concentration of half-maximal effect; tags give direction and shape of the fitted curve.

Experiment: qHTS for Inhibitors of human tyrosyl-DNA phosphodiesterase 1 (TDP1): qHTS in cells in absence of CPT; note: nearly all actives have a fitted effect of over 55% in size
Conditions: DT40 Tdp1-/- hTDP1 cells, no CPT, ATP luminescence, 48 h; activity change, negative = growth inhibition: at 46.2 µM (top of the series) unless noted
In short: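 Growth kinetics read by CellTiter-Glo luminescence after ≥48 hr at 37 °C. Cells: DT40 Tdp1-/- stably carrying human TDP1, 400 per well, compound exposure in the absence of CPT (DMSO vehicle).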
In the case of `CCn1nnnc1SCC(=O)N1c2ccccc2Sc2ccccc21`, the Potency is reported as inconclusive [inhibitor, partial curve]. In the case of `CCOC(=O)c1c(C)nc2cc(C)cc(C)n12`, the Potency is reported as “inactive”. In the case of `COC(=O)C1C2C=CC(C3CC23)C1C(=O)OCC(=O)c1ccc(OC)cc1` (stereo unspecified), the Potency is reported as inconclusive [inhibitor, single point]. For `CCOC(=O)[C@H]1[C@H]2COc3ccc(Br)cc3[C@@H]2N2C(=O)CN(Cc3ccco3)C(=O)[C@@]12C`, the Potency was inconclusive [inhibitor, single point]. For `Oc1ccc(-c2nc3ccccc3nc2-c2ccccc2)cc1`, the Potency was inconclusive [inhibitor, single point]. With `Cc1ccc(-c2cn3c(n2)sc2cc(C(=O)NCCCN4CCCCC4)ccc23)cc1` the Potency was active: 1.3 µM. With `COc1ccc([N+](=O)[O-])cc1NC(=O)CSCc1ccccc1C` the Potency was inconclusive [inhibitor, single point]. In the case of `COc1ccc(OCC2c3cc(OC)c(OC)cc3CCN2C(=O)c2ccc(F)cc2)cc1` (stereo unspecified), the activity change, negative = growth inhibition is reported as inconclusive: -30.2% [inhibitor]. For `CCN1CCN(CCOc2ccc(Br)cc2C)CC1`, the activity change, negative = growth inhibition was inconclusive: -31.2% [inhibitor]. In the case of `O=S(=O)(NCc1nc2cccnc2n1Cc1ccc(F)cc1)c1ccc2c(c1)CCCC2`, the Potency is reported as inconclusive [inhibitor, single point]. In the case of `C=CCN(c1ccccc1)S(=O)(=O)c1cccc(C(=O)NNC(=O)c2ccccc2O)c1`, the Potency is reported as inconclusive [inhibitor, single point]. For `C=CCn1c(SCC(=O)N(C)c2c(N)n(Cc3ccccc3)c(=O)[nH]c2=O)nnc1-c1ccccc1OC`, the Potency was “inactive”. For `CN1CCN(CC(=O)Nc2ccc(Oc3ccccc3)cc2)CC1`, the Potency was inconclusive [inhibitor, single point]. For `CCOc1ccc(NC(=O)CN(C)C(=O)c2ccc3nc(CC)c(CC)nc3c2)cc1OCC`, the Potency was “inactive”. For `CC1CCCCN1CCNC(=O)c1cc2c(=O)n(C)c3ccccc3c2n1C` (stereo unspecified), the Potency was inconclusive [inhibitor, single point]. For `COC(=O)c1c(-c2cc(OC)c(OC)c(OC)c2)c2ccnc(OCc3ncccn3)c2c(=O)n1Cc1ccnc(C)c1`, the Potency was “inactive”. With `O=c1c(/C=N/O)c(Nc2ccccc2)nc2ccccn12` the Potency was “inactive”. For `COc1ccc(S(=O)(=O)N2CCCC(C(=O)Nc3ccc(OC)c(OC)c3)C2)cc1` (stereo unspecified), the activity change, negative = growth inhibition was inconclusive: -31.4% [inhibitor]. For `Cc1ccccc1Nc1c(-c2cccnc2)nc2ccc(Br)cn12`, the Potency was inconclusive [inhibitor, partial curve]. With `CCCCNCCCCOc1ccccc1` the Potency was “inactive”. With `COc1ccc(Nc2nc(N)nc(CSC(=S)N3CCCCC3C)n2)cc1` (stereo unspecified) the Potency was active: 18.4 µM. In the case of `COc1ccc(C(=O)CC(=O)C(=O)Nc2ccc(OC)c(Cl)c2)cc1`, the activity change, negative = growth inhibition is reported as inconclusive: -35.4% [inhibitor]. In the case of `Cc1cc(NC(=O)Cn2c(=O)nc(-c3ccccc3F)c3cc(Cl)ccc32)ccc1Br`, the Potency is reported as inconclusive [inhibitor, single point]. For `O=S(=O)(NCCc1csc2nc(-c3ccc(F)cc3)nn12)c1ccc(Br)cc1`, the Potency was inconclusive [inhibitor, partial curve]. For `CCS(=O)(=O)c1nc(S(=O)(=O)c2ccc(Cl)cc2)c(N2CCc3ccccc3C2)s1`, the Potency was inconclusive [inhibitor, partial curve, poor fit]. With `CC1=C(C(=O)Nc2ccc([N+](=O)[O-])cc2)C(c2cccc(C(F)(F)F)c2)NC(=S)N1c1ccccc1` (stereo unspecified) the Potency was active: 16.4 µM. With `CN(CCOc1ccccc1)CC(O)COCc1ccccc1F` (stereo unspecified) the Potency was inconclusive [inhibitor, single point]. For `Cc1c(Cl)cccc1NC(=S)NCc1cccn1C`, the Potency was inconclusive [inhibitor, single point]. With `COc1ccc(C(=O)NCCc2nnc(SCC(=O)Nc3ccccc3)n2C)cc1` the Potency was “inactive”. For `COc1ccc(S(=O)(=O)N2CCOC23CCN(S(=O)(=O)c2cc(C)ccc2C)CC3)cc1`, the Potency was inconclusive [inhibitor, partial curve]. In the case of `CC(NC(=O)c1ccc(OC2CCN(Cc3ccccn3)CC2)cc1)c1ccccc1` (stereo unspecified), the Potency is reported as active: 18.4 µM. For `O=C(NC(NCC1CCCO1)C(Cl)(Cl)Cl)c1cccc2ccccc12` (stereo unspecified), the Potency was inconclusive [inhibitor, single point]. In the case of `CN(CCO)c1cccc2c1S(=O)(=O)N[C@H](Cc1ccccc1)CO2`, the Potency is reported as “inactive”. In the case of `COc1ccc(C(=O)OCC(=O)NC23CC4CC(CC(C4)C2)C3)c(OC)c1OC`, the Potency is reported as “inactive”. In the case of `O=C(O)CN1C(=O)/C(=C\C(Br)=C\c2ccccc2)SC1=S`, the Potency is reported as inconclusive [inhibitor, single point]. For `O=C1NC(c2cccc3ccccc23)Nc2ccccc21` (stereo unspecified), the Potency was active: 0.92 µM. In the case of `COc1ccc(N2C(=O)CC(Sc3ccccc3C(=O)O)C2=O)c([N+](=O)[O-])c1` (stereo unspecified), the Potency is reported as inconclusive [inhibitor, single point]. With `O=C(NCCCCCCNC(=O)c1cccs1)c1cccs1` the Potency was inconclusive [inhibitor, single point]. For `CCN1CCN(c2cc(C)c3cc(NC(=O)c4cccc(C(F)(F)F)c4)ccc3n2)CC1`, the Potency was active: 13 µM. In the case of `COc1nc(OCC#N)nc(N(C)C)n1`, the Potency is reported as “inactive”. In the case of `COC(=O)C1=C(C)N(Cc2ccccc2)C(=NCC(C)C)N[C@H]1c1ccccc1`, the Potency is reported as active: 4.11 µM. With `CCOC(=O)c1c(N)n(-c2ccc(Cl)c(Cl)c2)c2nc3ccccc3nc12` the Potency was inconclusive [inhibitor, full curve]. With `COc1cccc(CSc2nc3n(n2)C(c2cccs2)C(C(=O)Nc2ccccc2C)=C(C)N3)c1` (stereo unspecified) the Potency was active: 13 µM. For `CC(O)C1CCC2C3CCC4CC(O)CCC4(C)C3C(=O)CC12C` (stereo unspecified), the Potency was inconclusive [inhibitor, single point]. With `COc1cn(CC(=O)Nc2ccc(F)cc2)c(CN2CCCCC2)cc1=O` the Potency was “inactive”. In the case of `O=C(COc1ccc(Cl)cc1)Nc1ncc([N+](=O)[O-])s1`, the Potency is reported as active: 23.1 µM.
